# Reference: the supplement of paper PMC8728848
# The other results are listed elsewhere or left out.
# B1: Gal 4 (Homo sapiens), Q8K419 (protein)
# chain: MAYVPAPGYQPTYNPTLPYKRPIPGGLSVGMSVYIQGMAKENMRRFHVNFAVGQDDGADVAFHFNPRFDGWDKVVFNTMQSGQWGKEEKKKSMPFQKGKHFELVFMVMPEHYKVVVNGNSFYEYGHRLPVQMVTHLQVDGDLELQSINFLGGQPAAAPYPGAMTIPAYPAGSPGYNPPQMNTLPVMTGPPVFNPRVPYVGALQGGLTVRRTIIIKGYVLPTARNFVINFKVGSSGDIALHLNPRIGDSVVRNSFMNGSWGAEERKVAYNPFGPGQFFDLSIRCGMDRFKVFANGQHLFDFSHRFQAFQMVDTLEINGDITLSYVQI
# What was measured:
# Assay in all cases: glycan array binding signal (z-score within array); higher = stronger binding
# Details in all cases: glycan notation: IUPAC condensed, linker removed
# [1] = biological target: GlcNAc(b1-2)Man(a1-3)[GlcNAc(b1-2)Man(a1-6)]Man(b1-4)GlcNAc(b1-4)[Fuc(a1-6)]GlcNAc
# Summary of the method: (§1)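 From the Consortium for Functional Glycomics database, 3228 arrays were curated, keeping only those whose protein sequence was available. Binding is given as a within-array Z-score averaged across arrays sharing a protein sequence and across linkers. Negative Z-scores can be read as non-binding.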
# [2] = biological target: GlcNAc(b1-2)Man(a1-3)[GlcNAc(b1-4)][GlcNAc(b1-2)Man(a1-6)]Man(b1-4)GlcNAc(b1-4)GlcNAc
# Summary of the method: as §1
# [3] = biological target: GlcNAc(b1-2)[GlcNAc(b1-4)]Man(a1-3)[GlcNAc(b1-2)Man(a1-6)]Man(b1-4)GlcNAc(b1-4)GlcNAc
# Summary of the method: as §1
# [4] = biological target: GlcNAc(b1-2)[GlcNAc(b1-4)]Man(a1-3)[GlcNAc(b1-4)][GlcNAc(b1-2)Man(a1-6)]Man(b1-4)GlcNAc(b1-4)GlcNAc
# Summary of the method: as §1
# [5] = biological target: GlcNAc(b1-2)[GlcNAc(b1-4)]Man(a1-3)[GlcNAc(b1-4)][GlcNAc(b1-2)[GlcNAc(b1-6)]Man(a1-6)]Man(b1-4)GlcNAc(b1-4)GlcNAc
# Summary of the method: as §1
# [6] = biological target: GlcNAc(b1-2)[GlcNAc(b1-4)]Man(a1-3)[GlcNAc(b1-4)][GlcNAc(b1-2)[GlcNAc(b1-6)]Man(a1-6)]Man(b1-4)GlcNAc(b1-4)[Fuc(a1-6)]GlcNAc
# Summary of the method: as §1
# [7] = biological target: GlcNAc(b1-2)[GlcNAc(b1-6)]Man(a1-6)[GlcNAc(b1-2)Man(a1-3)]Man(b1-4)GlcNAc(b1-4)GlcNAc
# Summary of the method: as §1
# [8] = biological target: GlcNAc(b1-2)[GlcNAc(b1-6)]Man(a1-6)[GlcNAc(b1-2)Man(a1-3)]Man(b1-4)GlcNAc(b1-4)[Fuc(a1-6)]GlcNAc
# Summary of the method: as §1
# [9] = biological target: GlcNAc(b1-2)[GlcNAc(b1-6)]Man(a1-6)[GlcNAc(b1-2)Man(a1-3)][GlcNAc(b1-4)]Man(b1-4)GlcNAc(b1-4)GlcNAc
# Summary of the method: as §1
# GlcNAc(b1-3)Gal = biological target: GlcNAc(b1-3)Gal
# Summary of the method: as §1
# [10] = biological target: GlcNAc(b1-3)Gal(b1-3)GalNAc
# Summary of the method: as §1
# GlcNAc(b1-3)Gal(b1-4)Glc = biological target: GlcNAc(b1-3)Gal(b1-4)Glc
# Summary of the method: as §1
# [11] = biological target: GlcNAc(b1-3)Gal(b1-4)GlcNAc
# Summary of the method: as §1
# [12] = biological target: GlcNAc(b1-3)Gal(b1-4)GlcNAc(b1-3)Gal(b1-4)GlcNAc
# Summary of the method: as §1
# GlcNAc(b1-3)GalNAc = biological target: GlcNAc(b1-3)GalNAc
# Summary of the method: as §1
# GlcNAc(b1-3)Man = biological target: GlcNAc(b1-3)Man
# Summary of the method: as §1
# [13] = biological target: GlcNAc(b1-3)[GlcNAc(b1-4)][GlcNAc(b1-6)]GlcNAc
# Summary of the method: as §1
# [14] = biological target: GlcNAc(b1-3)[GlcNAc(b1-6)]Gal(b1-4)GlcNAc
# Summary of the method: as §1
# [15] = biological target: GlcNAc(b1-3)[GlcNAc(b1-6)]GalNAc
# Summary of the method: as §1
# [16] = biological target: GlcNAc(b1-4)Gal(b1-4)GlcNAc
# Summary of the method: as §1
# GlcNAc(b1-4)GlcNAc = biological target: GlcNAc(b1-4)GlcNAc
# Summary of the method: as §1
# [17] = biological target: GlcNAc(b1-4)GlcNAc(b1-4)GlcNAc
# Summary of the method: as §1
# [18] = biological target: GlcNAc(b1-4)GlcNAc(b1-4)GlcNAc(b1-4)GlcNAc(b1-4)GlcNAc
# Summary of the method: as §1
# [19] = biological target: GlcNAc(b1-4)GlcNAc(b1-4)GlcNAc(b1-4)GlcNAc(b1-4)GlcNAc(b1-4)GlcNAc
# Summary of the method: as §1
# [20] = biological target: GlcNAc(b1-4)[GlcNAc(b1-6)]GalNAc
# Summary of the method: as §1
# [21] = biological target: GlcNAc(b1-6)Gal(b1-4)GlcNAc
# Summary of the method: as §1
# GlcNAc(b1-6)GalNAc = biological target: GlcNAc(b1-6)GalNAc
# Summary of the method: as §1
# GlcNAc3Prop(b1-4)GlcNAc = biological target: GlcNAc3Prop(b1-4)GlcNAc
# Summary of the method: as §1
# [22] = biological target: GlcNAc6S(b1-3)Gal(b1-4)GlcNAc
# Summary of the method: as §1
# Kdn(a2-3)Gal(b1-3)GalNAc = biological target: Kdn(a2-3)Gal(b1-3)GalNAc
# Summary of the method: as §1
# Kdn(a2-3)Gal(b1-3)GlcNAc = biological target: Kdn(a2-3)Gal(b1-3)GlcNAc
# Summary of the method: as §1
# Kdn(a2-3)Gal(b1-4)Glc = biological target: Kdn(a2-3)Gal(b1-4)Glc
# Summary of the method: as §1
# Kdn(a2-3)Gal(b1-4)GlcNAc = biological target: Kdn(a2-3)Gal(b1-4)GlcNAc
# Summary of the method: as §1
# [23] = biological target: Kdn(a2-3)Gal(b1-4)[Fuc(a1-3)]GlcNAc
# Summary of the method: as §1
# Kdn(a2-6)Gal(b1-4)GlcNAc = biological target: Kdn(a2-6)Gal(b1-4)GlcNAc
# Summary of the method: as §1
# [24] = biological target: Man(a1-2)Man(a1-2)Man(a1-3)Man
# Summary of the method: as §1
# [25] = biological target: Man(a1-2)Man(a1-2)Man(a1-6)[Man(a1-3)]Man
# Summary of the method: as §1
# Man(a1-2)Man(a1-3)Man = biological target: Man(a1-2)Man(a1-3)Man
# Summary of the method: as §1
binder,measurement,setting,value
B1,glycan array binding signal (z-score),[1],-0.193
same,glycan array binding signal (z-score),[2],-0.204
same,glycan array binding signal (z-score),[3],-0.2
same,glycan array binding signal (z-score),[4],-0.195
same,glycan array binding signal (z-score),[5],-0.213
same,glycan array binding signal (z-score),[6],-0.217
same,glycan array binding signal (z-score),[7],-0.201
same,glycan array binding signal (z-score),[8],-0.196
same,glycan array binding signal (z-score),[9],-0.197
same,glycan array binding signal (z-score),GlcNAc(b1-3)Gal,-0.199
same,glycan array binding signal (z-score),[10],-0.004
same,glycan array binding signal (z-score),GlcNAc(b1-3)Gal(b1-4)Glc,0.292
same,glycan array binding signal (z-score),[11],-0.118
same,glycan array binding signal (z-score),[12],-0.105
same,glycan array binding signal (z-score),GlcNAc(b1-3)GalNAc,-0.206
same,glycan array binding signal (z-score),GlcNAc(b1-3)Man,-0.204
same,glycan array binding signal (z-score),[13],-0.185
same,glycan array binding signal (z-score),[14],-0.209
same,glycan array binding signal (z-score),[15],-0.2
same,glycan array binding signal (z-score),[16],-0.206
same,glycan array binding signal (z-score),GlcNAc(b1-4)GlcNAc,-0.202
same,glycan array binding signal (z-score),[17],-0.205
same,glycan array binding signal (z-score),[18],-0.208
same,glycan array binding signal (z-score),[19],-0.206
same,glycan array binding signal (z-score),[20],-0.202
same,glycan array binding signal (z-score),[21],-0.209
same,glycan array binding signal (z-score),GlcNAc(b1-6)GalNAc,-0.204
same,glycan array binding signal (z-score),GlcNAc3Prop(b1-4)GlcNAc,-0.2
same,glycan array binding signal (z-score),[22],-0.232
same,glycan array binding signal (z-score),Kdn(a2-3)Gal(b1-3)GalNAc,-0.199
same,glycan array binding signal (z-score),Kdn(a2-3)Gal(b1-3)GlcNAc,-0.198
same,glycan array binding signal (z-score),Kdn(a2-3)Gal(b1-4)Glc,-0.243
same,glycan array binding signal (z-score),Kdn(a2-3)Gal(b1-4)GlcNAc,-0.201
same,glycan array binding signal (z-score),[23],-0.19
same,glycan array binding signal (z-score),Kdn(a2-6)Gal(b1-4)GlcNAc,-0.198
same,glycan array binding signal (z-score),[24],-0.198
same,glycan array binding signal (z-score),[25],-0.198
same,glycan array binding signal (z-score),Man(a1-2)Man(a1-3)Man,-0.194
